Measured values: PubChem BioAssay AID588855 (National Center for Advancing Translational Sciences (NCATS), 2011)
The campaign covered roughly 410,000 compounds. About 5,000 (1.2%) were called active. Inconclusive results, whose numbers are uncertain, are shown with a selection of clear calls. Calls follow the shape of the dose curve; as a rule, active = well fitted inhibition curve with a large enough effect; inconclusive = small, poorly fitted or top-dose-only effect; inactive = no such curve, though single readings can be large or run the other way. A potency beside an inconclusive call is a rough fit, not a confirmed value.

assay: qHTS for Inhibitors of TGF-b; settings: HepG2 CAGA-GFP TGF-b/SMAD3 reporter, GFP fluorescence, 18 h, TGF-beta stimulated, 500 pg/mL final; series mostly up to 46.1 µM; also: nearly all actives have a fitted effect of over 65% in size
In short: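 Per well, imaged GFP fluorescence of HEPG2 CAGA-GFP cells gives the signal; cells get compound, then TGF-beta (500 pg/mL final), 18 h at 37 degrees C; %Activity versus -TGF-beta and +DMSO controls.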
Potency is read from the fitted curve at half-maximal effect; tags tell the direction and shape of the fitted curve.

| SMILES | Potency |
| --- | --- |
| CCC(C)(C)NC(=O)C(c1ccccc1F)N(Cc1ccco1)C(=O)c1csnn1 (centres undefined) | inactive |
| C=CCn1c(C)nnc1SCC(=O)N1c2ccccc2NC(=O)C1(C)C | inactive |
| Cc1cccc(OCC(=O)N2CCN(C(=O)COc3ccc(Cl)cc3)CC2)c1 | inactive |
| O=C(CN1c2ccccc2Sc2ccccc21)NNC(=S)Nc1ccc(Cl)cc1Cl | inconclusive: 12.6 µM [inhibitor, partial curve, poor fit] |
| Cc1ccc(C)c(NC(=O)c2cc(S(=O)(=O)N3CCCc4ccccc43)ccc2F)c1 | inactive |
| Cc1cc(C)c(OCC(=O)N(Cc2ccco2)Cc2ccco2)c(C)c1 | inconclusive: 35.5 µM [inhibitor, single point] |
| CCOc1cc(NC(=S)NC)c(OCC)cc1NC(=O)c1ccc(OC)cc1 | inactive |
| CCC(C)(C#CCN1CCCCC1)OCCC#N (centres undefined) | inconclusive: 5.62 µM [inhibitor, single point] |
| COc1ccc(NS(=O)(=O)c2ccc3oc(SC4CCOC4=O)nc3c2)cc1 (centres undefined) | inconclusive: 35.5 µM [inhibitor, single point] |
| Cc1ccccc1-c1noc(-c2ccc(Cl)cc2)n1 | inactive |
| CCc1ccc(/C=N/NC(=O)c2cc(-c3cccc([N+](=O)[O-])c3)n[nH]2)cc1 | inconclusive: 11.2 µM [inhibitor, partial curve, poor fit] |
| Cc1oc(-c2ccc(C(=O)NCc3ccc(Cl)cc3)cc2)nc1CS(=O)(=O)c1ccccc1 | inconclusive: 22.4 µM [inhibitor, single point] |
| Cc1cccc(N2CCN(C(=O)CN3C(=O)COc4ccc(S(=O)(=O)N5CCCCCC5)cc43)CC2)c1C | inconclusive: 1.12 µM [inhibitor, full curve, poor fit] |
| Cc1ccc(-n2c(Cc3cccn3C)nnc2SCC(=O)Nc2ccc3c(c2)OCO3)cc1 | inactive |
| CC(=O)NC(CC(=O)Nc1ccc(S(=O)(=O)N2CCOCC2)cc1)c1ccccc1 (centres undefined) | inconclusive: 6.31 µM [inhibitor, single point] |
| COc1cc2oc(=O)cc(-c3ccc(-c4ccc(F)c(Cl)c4)cc3)c2c(OC)c1OC | inconclusive: 10 µM [inhibitor, partial curve, poor fit] |
| CCOC(=O)N1CCN(C(=O)c2ccc(CSc3ccc(Cl)cc3)cc2)CC1 | inconclusive: 22.4 µM [inhibitor, single point] |
| COC(=O)Cc1ccc(NC(=S)N2CCC(Cc3ccccc3)CC2)cc1 | inactive |
| Cc1ccc(S(=O)(=O)N2CCCN(c3nc(-c4cccs4)nc4ccccc34)CC2)cc1 | inconclusive: 31.6 µM [inhibitor, single point] |
| O=C(COC(=O)Cc1ccccc1[N+](=O)[O-])NNC(=O)c1ccc([N+](=O)[O-])cc1 | inactive |
| Fc1ccccc1COc1ccc(Br)cc1CNCc1cccnc1 | inconclusive: 15.8 µM [inhibitor, partial curve, poor fit] |
| Cc1ccc(C(=O)O)cc1N=Cc1cc(Br)cc(Br)c1O | inconclusive: 35.5 µM [inhibitor, single point] |
| COc1ccc(NCC(=O)N/N=C(\C)c2cc3ccccc3o2)cc1 | inconclusive: 22.4 µM [inhibitor, single point] |

| SMILES | Potency |
| --- | --- |
| O=C(Nc1nc(-c2ccccc2)c(C(=O)c2ccccc2)s1)c1ccc(S(=O)(=O)N2CCCC2)cc1 | inconclusive: 4.47 µM [inhibitor, single point] |
| CCCCOc1cccc(C(=O)Nc2cccc(-c3nc4ncccc4o3)c2C)c1 | inconclusive: 11.2 µM [inhibitor, partial curve] |
| Cc1ccc(NC(=O)C2CCCN(c3ncnc4onc(-c5ccc(F)cc5)c34)C2)c(Cl)c1 (centres undefined) | inconclusive: 22.4 µM [inhibitor, single point] |
| CC(C)=CCc1c(-c2ccc(O)cc2O)oc2cc3c(c(O)c2c1=O)C=CC(C)(C)O3 | inconclusive: 35.5 µM [inhibitor, single point] |
| CC(C)c1ccc(N2C(=O)CC(Sc3ncn[nH]3)C2=O)cc1 (centres undefined) | inconclusive: 17.8 µM [inhibitor, single point] |
| Cc1cc(N(C)Cc2ccccc2)nc2cc(O)ccc12 | inactive |
| CN(C)CCCn1c2c3ccccc3ccc2c2oc(=O)c3ccccc3c21 | active: 8.91 µM |
| Cn1c(=O)c(C(=O)NNC(=O)c2ccccc2Cl)c(O)c2ccccc21 | inactive |
| CC(C)OCCCNC(=S)N1CCC(C(=O)c2ccc(Cl)cc2)CC1 | inconclusive: 35.5 µM [inhibitor, single point] |
| O=C(Nc1nnc(-c2ccco2)o1)c1ccc2ccccc2c1 | inconclusive: 6.31 µM [inhibitor, single point] |
| O=C(CNC(=O)c1ccco1)N/N=C/c1ccc(C(=O)O)cc1 | inactive |
| Cc1ccc(N2CCC(N3CCN(C)C(CCO)C3)CC2)cc1 (centres undefined) | inactive |
| O=C(c1ccccc1Br)N1CCc2c([nH]c3ccccc23)C1 | inconclusive: 35.5 µM [inhibitor, single point] |
| CCOC(=O)C(Cc1ccccc1)C(=O)NCc1cccnc1 (centres undefined) | inactive |
| CN1CCN(c2cc(-c3cc(O)c4ncccc4c3)ccn2)CC1 | inconclusive: 0.631 µM [inhibitor, full curve, poor fit] |
| Cc1cc2c(cc1C)N(C(=O)CSC1=NCCS1)C(C)(C)c1ssc(=S)c1-2 | inconclusive: 6.31 µM [inhibitor, full curve, poor fit] |
| N#C/C(=C(/O)c1ccco1)c1nc2ccccc2s1 | inconclusive: 15.8 µM [inhibitor, single point] |
| CCCCn1cc2c(c1-c1ccccc1Br)c(=O)n(C)c(=O)n2C | inactive |
| CCC(C)NC(=O)C1CCCN(C(=O)Nc2ccc(F)cc2)C1 (centres undefined) | inconclusive: 0.631 µM [inhibitor, partial curve, poor fit] |
| COc1ccc(-n2c(C)nc3cc(C(=O)NCCN4CCOCC4)ccc32)cc1 | inactive |
| O=C(C[C@@H]1C/C=C\C[C@@H](NC(=O)OCC2c3ccccc3-c3ccccc32)C(=O)OCCNC1=O)N[C@@H](CO)Cc1ccccc1 | inactive |
| O=C1Nc2c(Br)cccc2C1=O | inconclusive: 14.1 µM [inhibitor, partial curve, poor fit] |
| CCCCSc1nc(C)cc(SCC(=O)N/N=C/c2ccccc2)n1 | inactive |

| SMILES | Potency |
| --- | --- |
| Fc1ccc(/C=C\c2nccc3c2[nH]c2ccccc23)cc1 | inconclusive: 22.4 µM [inhibitor, single point] |
| COc1ccc([N+](=O)[O-])cc1N(CC(=O)NCCCOC(C)C)S(C)(=O)=O | inactive |
| Cc1cnc(NC(=O)c2nn(C)cc2[N+](=O)[O-])s1 | inconclusive: 28.2 µM [inhibitor, single point] |
| O=c1oc2ccccc2c(NC2CCCCC2)c1NS(=O)(=O)c1ccc(Br)cc1 | inconclusive: 35.5 µM [inhibitor, single point] |
| CNC(=S)N(C)/N=C1/C(=O)N(Cc2c(Cl)cccc2Cl)c2ccccc21 | inconclusive: 22.4 µM [inhibitor, single point] |
| C[C@H](CO)N1C[C@H](C)[C@H](CN(C)Cc2ccncc2)Oc2ccc(NC(=O)Nc3ccc(C(F)(F)F)cc3)cc2CC1=O | active: 12.6 µM |
| Cc1ccc(-c2nnc(SCC(=O)NC3CCCC3)nc2-c2ccc(C)cc2)cc1 | inconclusive: 35.5 µM [inhibitor, single point] |
| NC(N)=NS(=O)(=O)c1ccc(NC(=S)NC(=O)/C=C/c2ccc(F)cc2)cc1 | inactive |
| Cc1ccc2oc(-c3cccc(NC(=S)NC(=O)/C=C/c4ccco4)c3)nc2c1 | inconclusive: 0.316 µM [inhibitor, full curve, poor fit] |
| O=c1[nH]c(Cc2ccccc2)nc2c1oc1ccccc12 | inconclusive: 0.891 µM [inhibitor, full curve, poor fit] |
| O=C(CCC(=O)N1CC2CCCN2c2ccccc21)NCc1cccc(Cl)c1 (centres undefined) | inconclusive: 35.5 µM [inhibitor, single point] |
| CC(C)N1CCC(=NNc2ccc(S(=O)(=O)N3CCOCC3)cc2[N+](=O)[O-])CC1 | inconclusive: 22.4 µM [inhibitor, partial curve, poor fit] |
| CC(C)C(=O)N1CCCC1(C)C(=O)NCc1ccc(Cl)cc1 (centres undefined) | inactive |
| C[C@@H]1CN(S(=O)(=O)c2ccc3c(c2)OCCO3)CCN1S(=O)(=O)c1c(F)cccc1F | inconclusive: 20 µM [inhibitor, single point] |
| CSc1ccccc1C(=O)N1CCN(c2cccc(Cl)c2)CC1 | inconclusive: 28.2 µM [inhibitor, single point] |
| COc1ccc(C2CC(O)(c3ccccc3)Oc3cc(C)cc(C)c32)cc1 (centres undefined) | inconclusive: 35.5 µM [inhibitor, single point] |
| CCCC(=O)O/N=C(\c1ccccc1)c1ccncc1 | inactive |
| COc1nc(N=C(N)N)nc2c(C)cccc12 | inconclusive: 0.708 µM [inhibitor, full curve, poor fit] |
| O=Cc1ccc(O)c2ncccc12 | active: 3.98 µM |
| Cn1cccc1Cc1nnc(SCC(=O)Nc2nc3ccccc3s2)n1CCc1ccccc1 | inconclusive: 35.5 µM [inhibitor, single point] |
| Cc1ccccc1Nc1sc(C(=O)c2ccccc2)c(N)c1C(=O)NCc1ccc(Cl)cc1 | inconclusive: 35.5 µM [inhibitor, single point] |
| Cc1ccc(C)c(C(O)c2ncc(-c3ccccc3Cl)[nH]2)c1 (centres undefined) | inactive |
| CCCc1nnc(NC(=O)CCC(=O)N2CCN(Cc3ccc(Cl)cc3)CC2)s1 | inactive |
